Test results published in the GPR68 mutational scans of Howard et al. (2025).
Scores whose standard error is large were omitted. Two further conditions of the source, in which the scores hardly spread, are not listed. Read del as a deletion of the residues named and ins as an insertion between two positions. For some assays here: The data file names ogerin without a concentration.

B1: GPR68, Q15743 (parent)
chain: MGNITADNSSMSCTIDHTIHQTLAPVVYVTVLVVGFPANCLSLYFGYLQIKARNELGVYLCNLTVADLFYICSLPFWLQYVLQHDNWSHGDLSCQVCGILLYENIYISVGFLCCISVDRYLAVAHPFRFHQFRTLKAAVGVSVVIWAKELLTSIYFLMHEEVIEDENQHRVCFEHYPIQAWQRAINYYRFLVGFLFPICLLLASYQGILRAVRRSHGTQKSRKDQIQRLVLSTVVIFLACFLPYHVLLLVRSVWEASCDFAKGVFNAYHFSLLLTSFNCVADPVLYCFVSETTHRDLARLRGACLAFLTCSRTGRAREAYPLGAPEASGKSGAQGEEPELLTKLHPAFQTPNSPGSGGFPTGRLA

Experiments:
[1] = variants of: B1; assay: cAMP reporter score (Enrich2 score, wild type = 0); higher = more signal; HEK293T, FACS bins
[2] = variants of: B1; assay: surface expression score (Enrich2 score, wild type = 0); higher = more signal; HEK293T, FACS bins

MGNITADNSSMSCTIDHTIHQTLAPVVYVTVLVVGFPANCLSLYFGYLQIKARNELGVYLCNYTVADLFYICSLPFWLQYVLQHDNWSHGDLSCQVCGILLYENIYISVGFLCCISVDRYLAVAHPFRFHQFRTLKAAVGVSVVIWAKELLTSIYFLMHEEVIEDENQHRVCFEHYPIQAWQRAINYYRFLVGFLFPICLLLASYQGILRAVRRSHGTQKSRKDQIQRLVLSTVVIFLACFLPYHVLLLVRSVWEASCDFAKGVFNAYHFSLLLTSFNCVADPVLYCFVSETTHRDLARLRGACLAFLTCSRTGRAREAYPLGAPEASGKSGAQGEEPELLTKLHPAFQTPNSPGSGGFPTGRLA [L63Y] gave a cAMP reporter score ([1]; pH 5.5) of -2.06, a cAMP reporter score ([1]; pH 6) of -1.32 and a cAMP reporter score ([1]; pH 6, modulator: ogerin) of -1.51. The cAMP reporter score ([1]; pH 6.5, modulator: ogerin) was -0.797 and the surface expression score [2] was -2.99.

Work on L63_T64insGS yielded a cAMP reporter score ([1]; pH 5.5) of -1.32, a cAMP reporter score ([1]; pH 6) of -1.22 and a cAMP reporter score ([1]; pH 6, modulator: ogerin) of -1.64. The cAMP reporter score ([1]; pH 6.5, modulator: ogerin) was -0.809 and the surface expression score [2] was -1.98.

In the case of T64_V65del, the cAMP reporter score ([1]; pH 5.5) is reported as -1.44, the cAMP reporter score ([1]; pH 6) is reported as -1.84 and the cAMP reporter score ([1]; pH 6, modulator: ogerin) is reported as -1.68. It also gave a cAMP reporter score ([1]; pH 6.5, modulator: ogerin) of -1.28 and a surface expression score [2] of -2.55.

In the case of MGNITADNSSMSCTIDHTIHQTLAPVVYVTVLVVGFPANCLSLYFGYLQIKARNELGVYLCNLTAADLFYICSLPFWLQYVLQHDNWSHGDLSCQVCGILLYENIYISVGFLCCISVDRYLAVAHPFRFHQFRTLKAAVGVSVVIWAKELLTSIYFLMHEEVIEDENQHRVCFEHYPIQAWQRAINYYRFLVGFLFPICLLLASYQGILRAVRRSHGTQKSRKDQIQRLVLSTVVIFLACFLPYHVLLLVRSVWEASCDFAKGVFNAYHFSLLLTSFNCVADPVLYCFVSETTHRDLARLRGACLAFLTCSRTGRAREAYPLGAPEASGKSGAQGEEPELLTKLHPAFQTPNSPGSGGFPTGRLA [V65A], the cAMP reporter score ([1]; pH 5.5) is reported as -0.171, the cAMP reporter score ([1]; pH 6) is reported as 0.087 and the cAMP reporter score ([1]; pH 6, modulator: ogerin) is reported as -0.252. The cAMP reporter score ([1]; pH 6.5, modulator: ogerin) was 0.331 and the surface expression score [2] was -0.3.

In the case of L63_T64insGSG, the cAMP reporter score ([1]; pH 5.5) is reported as -1.51, the cAMP reporter score ([1]; pH 6) is reported as -1.62 and the cAMP reporter score ([1]; pH 6, modulator: ogerin) is reported as -1.21. It also gave a cAMP reporter score ([1]; pH 6.5, modulator: ogerin) of -1.19 and a surface expression score [2] of -2.71.

L63del gave a cAMP reporter score ([1]; pH 5.5) of -1.78, a cAMP reporter score ([1]; pH 6) of -0.802 and a cAMP reporter score ([1]; pH 6, modulator: ogerin) of -0.909. For the same variant, the cAMP reporter score ([1]; pH 6.5, modulator: ogerin) was -0.721 and the surface expression score [2] was -1.95.

Work on T64_V65insGS yielded a cAMP reporter score ([1]; pH 5.5) of -1.19, a cAMP reporter score ([1]; pH 6) of -1.03 and a cAMP reporter score ([1]; pH 6, modulator: ogerin) of -2.42. The cAMP reporter score ([1]; pH 6.5, modulator: ogerin) was -0.971 and the surface expression score [2] was -2.93.
